In all, about 310,000 compounds went through this assay and about 14,000 (4.5%) showed an effect of 50% or more. The effect is printed as a negative number. The list shows a part of the results.
Target: human ether-à-go-go-related gene (hERG) potassium channel (human, UniProt Q12809)
Test: primary screen, population patch clamp on CHO cells stably expressing hERG
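Also: peak tail current of the secondary pulse compared with the same well before compound.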

Sequence of human ether-à-go-go-related gene (hERG) potassium channel (Q12809 whole entry, looked up): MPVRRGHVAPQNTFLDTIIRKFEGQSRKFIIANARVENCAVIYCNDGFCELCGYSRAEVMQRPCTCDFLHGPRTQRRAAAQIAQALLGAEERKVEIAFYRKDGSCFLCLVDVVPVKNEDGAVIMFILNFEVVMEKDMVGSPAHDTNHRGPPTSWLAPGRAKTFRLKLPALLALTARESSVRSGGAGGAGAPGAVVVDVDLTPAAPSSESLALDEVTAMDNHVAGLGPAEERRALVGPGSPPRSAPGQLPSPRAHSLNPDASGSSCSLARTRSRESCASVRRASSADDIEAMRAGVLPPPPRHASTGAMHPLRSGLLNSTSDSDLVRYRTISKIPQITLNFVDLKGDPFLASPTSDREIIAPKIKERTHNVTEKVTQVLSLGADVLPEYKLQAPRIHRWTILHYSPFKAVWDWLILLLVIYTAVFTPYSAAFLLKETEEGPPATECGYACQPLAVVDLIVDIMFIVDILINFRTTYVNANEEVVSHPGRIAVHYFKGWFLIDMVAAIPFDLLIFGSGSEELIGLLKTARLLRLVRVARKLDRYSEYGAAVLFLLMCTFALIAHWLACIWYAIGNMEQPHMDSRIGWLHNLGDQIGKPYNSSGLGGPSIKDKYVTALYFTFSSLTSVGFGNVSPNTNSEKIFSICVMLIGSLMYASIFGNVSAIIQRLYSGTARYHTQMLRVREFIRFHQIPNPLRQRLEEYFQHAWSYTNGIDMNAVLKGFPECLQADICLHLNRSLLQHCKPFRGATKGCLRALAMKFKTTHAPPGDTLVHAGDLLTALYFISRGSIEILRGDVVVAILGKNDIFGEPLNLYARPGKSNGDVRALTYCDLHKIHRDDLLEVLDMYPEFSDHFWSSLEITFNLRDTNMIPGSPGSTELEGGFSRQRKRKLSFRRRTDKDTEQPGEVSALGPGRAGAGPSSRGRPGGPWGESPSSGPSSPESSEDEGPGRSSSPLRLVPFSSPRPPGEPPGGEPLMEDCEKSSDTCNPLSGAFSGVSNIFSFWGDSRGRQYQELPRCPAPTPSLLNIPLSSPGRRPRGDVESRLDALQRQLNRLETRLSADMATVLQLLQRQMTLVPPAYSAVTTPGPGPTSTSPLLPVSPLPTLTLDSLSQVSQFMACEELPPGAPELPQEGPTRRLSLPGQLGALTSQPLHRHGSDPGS

SMILES	hERG current change (%, negative = inhibition) at 10uM
CS(=O)(=O)N1CCN(C(=O)CSc2ccccc2)CC1	14%
Cc1cc(C)cc(NC(=O)CN2CCN(c3ccccn3)CC2)c1	-24.5%
CN(C)S(=O)(=O)c1cccc(C(=O)OCC(=O)N2CCCC2=O)c1	20.9%
Cc1ccccc1NS(=O)(=O)c1ccc(C(=O)NCC(c2ccccc2)N(C)C)cc1 (centres unmarked)	4.97%
CC(=O)NS(=O)(=O)c1ccc(NC(=O)c2cccc(S(=O)(=O)N3CCc4ccccc43)c2)cc1	14.1%
O=C(CCCc1ccccc1)Nc1cccnc1Cl	12.7%
CCOC(=O)N1CCC(NC(=O)c2cn(-c3ccc(OC)cc3)c(=O)c3ccccc23)CC1	-6.75%
O=C(Nc1cccc2ncccc12)c1ccccc1Cl	18.6%
COCCn1c(N)c(N(Cc2ccccc2)C(=O)COc2ccc(F)cc2Cl)c(=O)[nH]c1=O	20.8%
COc1ccc(/C=C2\SC(=S)N(CCC(=O)NCCCN3CCOCC3)C2=O)cc1.Cl	-0.616%
CC1=C(C(=O)OCC2CCCO2)C(c2ccc(C)o2)C2=C(CC(c3ccc(F)cc3)CC2=O)N1 (centres unmarked)	-29%
CCC(=O)Nc1ccc(/C(C)=N\NS(=O)(=O)c2ccc(C)cc2)cc1	3.74%
O=C(CN1C(=O)C2C3CC(C(Br)C3Br)C2C1=O)Nc1ccc(C(=O)O)cc1 (centres unmarked)	13.3%
CC(C)CC1Nc2ccc(C(=O)NCCCN3CCOCC3)cc2NC1=O (centres unmarked)	20.3%
COc1cccc(N(CC(=O)NCCSc2ccccn2)S(C)(=O)=O)c1	7.11%
COc1ccc2nc(CNC(=O)C3CCC(=O)N(CCc4ccccc4)C3)[nH]c2c1 (centres unmarked)	12.3%
O=c1c2ccccc2[nH]c(=S)n1CCCN1CCC(Cc2ccccc2)CC1	-73.6%
CC/C(=N\NC(=O)CCC(=O)NCc1ccccc1)c1ccc(O)cc1	8%
Cn1c(SCC(=O)c2ccc(F)cc2)nnc1-c1cnccn1	3.06%
CCOc1cc(/C=C2/NC(=O)N(CC(=O)Nc3cccc(C)c3)C2=O)ccc1OCC(N)=O	12%
O=C(c1cccc2ccccc12)C1CCCN(C(=O)CCc2cnccn2)C1 (centres unmarked)	-5.34%
COc1ccc(CNC(=O)COC(=O)c2cccnc2Nc2cccc(C(F)(F)F)c2)cc1	1.46%

SMILES	hERG current change (%, negative = inhibition) at 10uM
Cc1ccc(NC(=O)COC(=O)Cc2c(F)cccc2Cl)cc1S(=O)(=O)N1CCOCC1	-34.3%
COc1cccc(OC)c1C(=O)NC(=S)Nc1ccc2c(c1)C(=O)N(C)C2=O	-3.61%
CCCCNc1ccc(C(=O)OCCN(C)C)cc1.Cl	-11.6%
CCOC(=O)C1=C(N)OC2=C(C(=O)CCC2)C1c1ccccc1OCC (centres unmarked)	9.8%
Cc1nnc(SCc2cnc(-c3ccccc3)o2)[nH]c1=O	17.2%
O=C(Nc1ccc(Cl)cn1)c1ccc2c(Cl)c3c(nc2c1)CCC3	14.8%
COc1cc(S(=O)(=O)NC2CCCC2)ccc1F	1.19%
COc1ccc(-c2nc3ccccc3c(=O)o2)cc1	26.1%
Cc1ccc(Nc2nc3c(s2)CCC3)c(C)c1	-3.3%
O=c1cc(C(F)(F)F)nc(-n2[nH]c3c(c2=O)CCCC3)[nH]1	5.08%
O=C(O)C1C2C=CC(C2)C1C(=O)Nc1ccc2c(c1)OCCO2 (centres unmarked)	14.3%
O=C(CSc1ncn[nH]1)N/N=C/c1ccc(C(F)(F)F)cc1	-1.39%
Cc1cc(=O)c2cc(Cl)ccc2[nH]1	2.55%
C=CCOc1ccc(C(=O)c2ccccc2)c(OCC(=O)NC2(C#N)CCCC2)c1	8.08%
O=C(CSc1nnnn1Cc1ccccc1)NCC(=O)c1ccccc1	-2.09%
Cc1cc(Nc2nc3ccccc3[nH]c2=O)n(-c2ccccc2)n1	-5.63%
O=C(OCc1nnc(-c2ccccc2)o1)c1ccco1	-8.22%
O=C(Cn1[nH]c(=O)c2ccccc2c1=O)OCC(=O)c1ccccc1	11.3%
OC(CNCc1ccc2c(c1)OCO2)COc1ccccc1 (centres unmarked)	-5.74%
Cc1cccc(NC(=O)CNC(=O)Cc2ccc(S(=O)(=O)N3CCOCC3)s2)c1C	5.91%
O=C(Cn1cc2c(n1)CCCCC2)NCCCN1CCOCC1	7.34%
Cn1c(SCc2ccccc2[N+](=O)[O-])nnc1-c1cccnc1	12.1%

From article PMC4336329 (PLoS ONE, 2015)
